# According to the supplement of paper PMC8728848:
# Some of the results follow.
# Key:
# Experiment in all cases: glycan array binding signal (z-score within array); higher = stronger binding
# Settings in all cases: glycan notation: IUPAC condensed, linker removed
# Fuc(a1-2)Gal = target: Fuc(a1-2)Gal
# Procedure, shortened: (§1)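 Glycan array binding is given as a within-array Z-score, which can be read as non-binding when negative. The arrays, 3228 of them, came from the Consortium for Functional Glycomics database and were retained only where the protein sequence was available. Z-scores were averaged across arrays of the same protein sequence at different concentrations or buffers and across linkers.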
# Fuc(a1-2)Gal(b1-3)GalNAc = target: Fuc(a1-2)Gal(b1-3)GalNAc
# Procedure, shortened: as §1
# [1] = target: Fuc(a1-2)Gal(b1-3)GalNAc(a1-3)[Fuc(a1-2)]Gal(b1-4)Glc
# Procedure, shortened: as §1
# [2] = target: Fuc(a1-2)Gal(b1-3)GalNAc(a1-3)[Fuc(a1-2)]Gal(b1-4)GlcNAc
# Procedure, shortened: as §1
# [3] = target: Fuc(a1-2)Gal(b1-3)GalNAc(b1-3)Gal
# Procedure, shortened: as §1
# [4] = target: Fuc(a1-2)Gal(b1-3)GalNAc(b1-3)Gal(a1-4)Gal(b1-4)Glc
# Procedure, shortened: as §1
# [5] = target: Fuc(a1-2)Gal(b1-3)GalNAc(b1-4)[Neu5Ac(a2-3)]Gal(b1-4)Glc
# Procedure, shortened: as §1
# Fuc(a1-2)Gal(b1-3)GlcNAc = target: Fuc(a1-2)Gal(b1-3)GlcNAc
# Procedure, shortened: as §1
# [6] = target: Fuc(a1-2)Gal(b1-3)GlcNAc(b1-2)Man(a1-3)[Fuc(a1-2)Gal(b1-3)GlcNAc(b1-2)Man(a1-6)]Man(b1-4)GlcNAc(b1-4)GlcNAc
# Procedure, shortened: as §1
# [7] = target: Fuc(a1-2)Gal(b1-3)GlcNAc(b1-2)Man(a1-3)[Fuc(a1-2)Gal(b1-3)GlcNAc(b1-2)Man(a1-6)]Man(b1-4)GlcNAc(b1-4)[Fuc(a1-6)]GlcNAc
# Procedure, shortened: as §1
# [8] = target: Fuc(a1-2)Gal(b1-3)GlcNAc(b1-3)Gal(b1-4)Glc
# Procedure, shortened: as §1
# [9] = target: Fuc(a1-2)Gal(b1-3)GlcNAc(b1-3)GalNAc
# Procedure, shortened: as §1
# [10] = target: Fuc(a1-2)Gal(b1-3)GlcNAc(b1-3)[Fuc(a1-2)Gal(b1-3)GlcNAc(b1-6)]GalNAc
# Procedure, shortened: as §1
# [11] = target: Fuc(a1-2)Gal(b1-3)GlcNAc(b1-3)[Gal(b1-4)GlcNAc(b1-6)]Gal(b1-4)Glc
# Procedure, shortened: as §1
# [12] = target: Fuc(a1-2)Gal(b1-3)GlcNAc(b1-3)[Neu5Ac(a2-6)Gal(b1-4)GlcNAc(b1-6)]Gal(b1-4)Glc
# Procedure, shortened: as §1
# [13] = target: Fuc(a1-2)Gal(b1-3)GlcNAc6S
# Procedure, shortened: as §1
# [14] = target: Fuc(a1-2)Gal(b1-3)[Fuc(a1-4)]GlcNAc
# Procedure, shortened: as §1
# [15] = target: Fuc(a1-2)Gal(b1-3)[Fuc(a1-4)]GlcNAc(b1-2)Man(a1-3)[Fuc(a1-2)Gal(b1-3)[Fuc(a1-4)]GlcNAc(b1-2)Man(a1-3)]Man(b1-4)GlcNAc(b1-4)GlcNAc
# Procedure, shortened: as §1
# [16] = target: Fuc(a1-2)Gal(b1-3)[Fuc(a1-4)]GlcNAc(b1-2)Man(a1-3)[Fuc(a1-2)Gal(b1-3)[Fuc(a1-4)]GlcNAc(b1-2)Man(a1-6)]Man(b1-4)GlcNAc(b1-4)[Fuc(a1-6)]GlcNAc(b1-4)[Fuc(a1-6)]GlcNAc
# Procedure, shortened: as §1
# [17] = target: Fuc(a1-2)Gal(b1-3)[Fuc(a1-4)]GlcNAc(b1-3)[Fuc(a1-3)[Gal(b1-4)]GlcNAc(b1-6)]Gal(b1-4)Glc
# Procedure, shortened: as §1
# [18] = target: Fuc(a1-2)Gal(b1-3)[Fuc(a1-4)]GlcNAc(b1-3)[Gal(b1-4)GlcNAc(b1-6)]Gal(b1-4)Glc
# Procedure, shortened: as §1
# [19] = target: Fuc(a1-2)Gal(b1-4)Fuc(a1-3)]GlcNAc(b1-2)Man(a1-3)[Fuc(a1-2)Gal(b1-4)[Fuc(a1-3)]GlcNAc(b1-2)Man(a1-6)]Man(b1-4)GlcNAc(b1-4)GlcNAc
# Procedure, shortened: as §1
# Fuc(a1-2)Gal(b1-4)Glc = target: Fuc(a1-2)Gal(b1-4)Glc
# Procedure, shortened: as §1
# Fuc(a1-2)Gal(b1-4)Glc6S = target: Fuc(a1-2)Gal(b1-4)Glc6S
# Procedure, shortened: as §1
# Fuc(a1-2)Gal(b1-4)GlcNAc = target: Fuc(a1-2)Gal(b1-4)GlcNAc
# Procedure, shortened: as §1
# [20] = target: Fuc(a1-2)Gal(b1-4)GlcNAc(b1-2)Man
# Procedure, shortened: as §1
# [21] = target: Fuc(a1-2)Gal(b1-4)GlcNAc(b1-2)Man(a1-3)[Fuc(a1-2)Gal(b1-4)GlcNAc(b1-2)Man(a1-6)]Man(b1-4)GlcNAc(b1-4)GlcNAc
# Procedure, shortened: as §1
# [22] = target: Fuc(a1-2)Gal(b1-4)GlcNAc(b1-2)Man(a1-3)[Fuc(a1-2)Gal(b1-4)GlcNAc(b1-2)Man(a1-6)]Man(b1-4)GlcNAc(b1-4)[Fuc(a1-6)]GlcNAc
# Procedure, shortened: as §1
# [23] = target: Fuc(a1-2)Gal(b1-4)GlcNAc(b1-2)[Fuc(a1-2)Gal(b1-4)GlcNAc(b1-4)]Man(a1-3)[Fuc(a1-2)Gal(b1-4)GlcNAc(b1-2)Man(a1-6)]Man(b1-4)GlcNAc(b1-4)GlcNAc
# Procedure, shortened: as §1
# [24] = target: Fuc(a1-2)Gal(b1-4)GlcNAc(b1-3)Gal(b1-4)GlcNAc
# Procedure, shortened: as §1
# [25] = target: Fuc(a1-2)Gal(b1-4)GlcNAc(b1-3)Gal(b1-4)GlcNAc(b1-2)Man(a1-3)[Fuc(a1-2)Gal(b1-4)GlcNAc(b1-3)Gal(b1-4)GlcNAc(b1-2)Man(a1-6)]Man(b1-4)GlcNAc(b1-4)GlcNAc
# Procedure, shortened: as §1
# [26] = target: Fuc(a1-2)Gal(b1-4)GlcNAc(b1-3)Gal(b1-4)GlcNAc(b1-3)Gal(b1-4)GlcNAc
# Procedure, shortened: as §1
# [27] = target: Fuc(a1-2)Gal(b1-4)GlcNAc(b1-3)GalNAc
# Procedure, shortened: as §1
# [28] = target: Fuc(a1-2)Gal(b1-4)GlcNAc(b1-3)[Fuc(a1-2)Gal(b1-4)GlcNAc(b1-6)]GalNAc
# Procedure, shortened: as §1
# [29] = target: Fuc(a1-2)Gal(b1-4)GlcNAc(b1-3)[Fuc(a1-3)[Gal(b1-4)]GlcNAc(b1-6)]Gal(b1-4)Glc
# Procedure, shortened: as §1
# [30] = target: Fuc(a1-2)Gal(b1-4)GlcNAc(b1-6)GalNAc
# Procedure, shortened: as §1
# [31] = target: Fuc(a1-2)Gal(b1-4)GlcNAc6S
# Procedure, shortened: as §1
# [32] = target: Fuc(a1-2)Gal(b1-4)[Fuc(a1-3)]GlcNAc
# Procedure, shortened: as §1
# [33] = target: Fuc(a1-2)Gal(b1-4)[Fuc(a1-3)]GlcNAc(b1-2)Man(a1-3)[Fuc(a1-2)Gal(b1-4)[Fuc(a1-3)]GlcNAc(b1-2)Man(a1-6)]Man(b1-4)GlcNAc(b1-4)[Fuc(a1-6)]GlcNAc
# Procedure, shortened: as §1
# [34] = target: Fuc(a1-2)Gal(b1-4)[Fuc(a1-3)]GlcNAc(b1-2)[Fuc(a1-2)Gal(b1-4)[Fuc(a1-3)]GlcNAc(b1-4)]Man(a1-3)[Fuc(a1-2)Gal(b1-4)[Fuc(a1-3)]GlcNAc(b1-2)Man(a1-6)]Man(b1-4)GlcNAc(b1-4)GlcNAc
# Procedure, shortened: as §1
# [35] = target: Fuc(a1-2)Gal(b1-4)[Fuc(a1-3)]GlcNAc(b1-3)Gal(b1-4)[Fuc(a1-3)]GlcNAc
# Procedure, shortened: as §1
# [36] = target: Fuc(a1-2)Gal(b1-4)[Fuc(a1-3)]GlcNAc(b1-3)Gal(b1-4)[Fuc(a1-3)]GlcNAc(b1-3)Gal(b1-4)[Fuc(a1-3)]GlcNAc
# Procedure, shortened: as §1
# [37] = target: Fuc(a1-2)Gal(b1-4)[Fuc(a1-3)]GlcNAc(b1-3)GalNAc
# Procedure, shortened: as §1
# [38] = target: Fuc(a1-2)Gal(b1-4)[Fuc(a1-3)]GlcNAc(b1-3)[Neu5Ac(a2-6)Gal(b1-4)GlcNAc(b1-6)]Gal(b1-4)Glc
# Procedure, shortened: as §1
# [39] = target: Fuc(a1-2)Gal3S(b1-4)GlcNAc
# Procedure, shortened: as §1
binder,measurement,setting,value
"AFL5 (Aspergillus fumigatus), Q4WB00 (protein) MDNFMEMTKKLGHQPELLRLRALDATYDDALEGKLVVAPLDMSEPGKKILDSGTADGTWLRNVRSKQSVPHDYYGSDVEGELFPKDPDGITYFAHSFKDPWPQQYLGFFDLVHIRGSLAGSAPEGPAPVIQNLTTLLKPGGWVQLMEMNAFSPPPNGPAMTDFAKMASEMFTGIGVGDFANNNKSMLEDAGLKNVQEKRVIVNLGKKAKPELHDQSIHGVTGPIVPLTSVARTVKSSFTGEQLDALPARVKEELETEGGQVEMIIAFGQKA",glycan array binding signal (z-score),Fuc(a1-2)Gal,0.294
same,glycan array binding signal (z-score),Fuc(a1-2)Gal(b1-3)GalNAc,-0.109
same,glycan array binding signal (z-score),[1],-0.099
same,glycan array binding signal (z-score),[2],0.124
same,glycan array binding signal (z-score),[3],-0.27
same,glycan array binding signal (z-score),[4],-0.338
same,glycan array binding signal (z-score),[5],-0.127
same,glycan array binding signal (z-score),Fuc(a1-2)Gal(b1-3)GlcNAc,-0.181
same,glycan array binding signal (z-score),[6],0.487
same,glycan array binding signal (z-score),[7],-0.008
same,glycan array binding signal (z-score),[8],-0.217
same,glycan array binding signal (z-score),[9],-0.31
same,glycan array binding signal (z-score),[10],-0.55
same,glycan array binding signal (z-score),[11],0.163
same,glycan array binding signal (z-score),[12],-0.441
same,glycan array binding signal (z-score),[13],-0.232
same,glycan array binding signal (z-score),[14],-0.036
same,glycan array binding signal (z-score),[15],0.527
same,glycan array binding signal (z-score),[16],-0.382
same,glycan array binding signal (z-score),[17],-0.34
same,glycan array binding signal (z-score),[18],-0.067
same,glycan array binding signal (z-score),[19],0.109
same,glycan array binding signal (z-score),Fuc(a1-2)Gal(b1-4)Glc,-0.439
same,glycan array binding signal (z-score),Fuc(a1-2)Gal(b1-4)Glc6S,0.122
same,glycan array binding signal (z-score),Fuc(a1-2)Gal(b1-4)GlcNAc,-0.379
same,glycan array binding signal (z-score),[20],0.42
same,glycan array binding signal (z-score),[21],-0.083
same,glycan array binding signal (z-score),[22],0.254
same,glycan array binding signal (z-score),[23],-0.16
same,glycan array binding signal (z-score),[24],-0.689
same,glycan array binding signal (z-score),[25],0.907
same,glycan array binding signal (z-score),[26],0.549
same,glycan array binding signal (z-score),[27],-0.06
same,glycan array binding signal (z-score),[28],-0.019
same,glycan array binding signal (z-score),[29],-0.495
same,glycan array binding signal (z-score),[30],-0.782
same,glycan array binding signal (z-score),[31],-0.467
same,glycan array binding signal (z-score),[32],-0.295
same,glycan array binding signal (z-score),[33],0.182
same,glycan array binding signal (z-score),[34],-0.006
same,glycan array binding signal (z-score),[35],-0.442
same,glycan array binding signal (z-score),[36],-0.555
same,glycan array binding signal (z-score),[37],0.141
same,glycan array binding signal (z-score),[38],-0.22
same,glycan array binding signal (z-score),[39],-0.47
